Assay results taken from PubChem BioAssay AID2202238 (Ras Initiative Chemistry Research Team, Frederick National …, 2025).
The list shows a part of the results. Shown are side measurements of this screen, not its main read-out; they come without a call.

Target: GTPase KRas (Homo sapiens) (UniProt P01116)
Assay: Fragment capture on engineered cysteines, share of protein labelled (AID 2202238)
Parameters: protein at 5 µM with 500 µM competing thiol for 1.5 h
Conditions: KRAS G12D cysteine mutants, disulfide tethering, MALDI-TOF labeling, stronger effect = higher value, fragment at 500 µM
[1] = measured here: G60C mutant labeling
[2] = measured here: G75C mutant labeling
[3] = measured here: H94C mutant labeling
[4] = measured here: I36C mutant labeling
[5] = measured here: L120C mutant labeling
[6] = measured here: M67C mutant labeling
[7] = measured here: M72C mutant labeling
[8] = measured here: N26C mutant labeling
[9] = measured here: N86C mutant labeling
[10] = measured here: P121C mutant labeling
[11] = measured here: S122C mutant labeling
[12] = measured here: S136C mutant labeling

UniProt P01116, sequence (P01116 whole entry, looked up, the tested form may be a part): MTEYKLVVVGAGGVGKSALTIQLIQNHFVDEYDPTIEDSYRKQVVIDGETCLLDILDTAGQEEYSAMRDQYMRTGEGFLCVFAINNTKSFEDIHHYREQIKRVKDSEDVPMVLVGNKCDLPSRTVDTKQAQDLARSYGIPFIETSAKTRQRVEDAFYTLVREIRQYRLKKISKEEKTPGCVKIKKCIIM

Compound	percent labeling [1]	percent labeling [2]	percent labeling [3]	percent labeling [4]	percent labeling [5]	percent labeling [6]	percent labeling [7]	percent labeling [8]	percent labeling [9]	percent labeling [10]	percent labeling [11]	percent labeling [12]
O=C(NCCS)c1ncoc1CCC(F)(F)F	28%	19.8%	35.8%	15.8%	37.8%	23.6%	38.6%	31%	21%	26.4%	28.4%	40.2%
O=C(NCCS)C1CCCN(C(=O)N2CCc3sccc3C2)C1 (centres undefined)	29.1%	7.7%	18.3%	14.5%	16.5%	28.7%	17.9%	34.1%	7.6%	15.7%	16.8%	36%
CC1(C)Cc2c(cnn2-c2ccccc2)CN(C(=O)CCS)C1	–	26.3%	37.7%	35.4%	27.2%	55.8%	51.6%	–	27.3%	31.2%	31.4%	53.6%
O=C(NCCS)c1ccn(CC(F)(F)F)c(=O)c1	23.5%	13.9%	31.8%	24.8%	35%	31.9%	24.8%	37%	26.6%	31.3%	32.9%	45%
N#Cc1cnn(-c2cccc(C(=O)NCCS)c2)c1N	33.1%	16.8%	29.5%	25.1%	32.3%	30.7%	38.5%	48.8%	27.5%	27.2%	26.4%	45.4%
O=C(CCNC(=O)c1cccc(Cl)c1)NCCS	34.1%	11.3%	31.6%	26.9%	29.9%	34.9%	28.8%	35.2%	25.3%	27.5%	25%	38.8%
O=C(NCCS)c1nc2ccccc2nc1C1CC1	35.1%	11.2%	15.9%	11.9%	21.8%	12.9%	24.6%	28.6%	9.3%	33.3%	10.2%	19.6%
O=C(NCCS)c1c[nH]c(=O)c(C(F)(F)F)c1	38.8%	29%	34%	30.6%	34.9%	32%	49%	48.1%	28.1%	34%	41%	50.7%
O=C(CCS)NCCNC(=O)c1cnccn1	–	5.5%	21.8%	35.5%	24.1%	27.2%	10.2%	–	19%	34.2%	30.7%	43.5%
CC(C)c1nc(CCNC(=O)CCS)n(C)n1	–	7.1%	20.5%	29.1%	22.1%	27.9%	9.3%	–	11.3%	27.4%	34.1%	42%
O=C(NCCS)c1cc2ccccc2o1	44.2%	31.7%	35.8%	26.4%	26.6%	25.4%	63.6%	37.8%	26.1%	38.7%	25.1%	36.9%
O=C(NCCS)C1CC(O)c2cc(F)ccc2O1 (centres undefined)	43.1%	21.3%	41.2%	26.8%	46%	33.3%	33.3%	47.1%	29.1%	37.7%	36.8%	53.8%
CCCN1CCN(c2ccc(CN(C)C(=O)CCS)nn2)CC1	–	11.9%	29.1%	45.3%	33.7%	53.2%	22.7%	–	36.7%	30.4%	27.1%	56.8%
O=C(CCS)Nc1cc(C(F)(F)F)ccc1N1CCCC1	–	13.4%	48.6%	20.7%	12.1%	16.8%	26.2%	–	10.3%	15.6%	11.5%	22.8%
Cc1c(CC(=O)NCCS)c(-c2ccccc2)nc2ccccc12	32.7%	14%	15.7%	9.5%	22.9%	14.8%	16.2%	24.7%	7.4%	9.1%	5.7%	30.6%
O=C(CCS)Nc1cccc(Br)c1	–	20.7%	58.2%	21.6%	17.6%	12.4%	46%	–	17%	21.7%	13.5%	29.8%
CCC(CC)C(C(=O)NCCS)N1CCOCC1 (centres undefined)	47.4%	15%	33.4%	22.7%	32.6%	32.4%	26.8%	31.2%	31%	30.2%	31.2%	43.1%
CN(Cc1ccn(C(F)F)n1)C(=O)CCS	–	11.3%	29.2%	34.3%	33.6%	28.9%	17.2%	–	16.8%	30.5%	33.9%	49.4%
CN(C)c1ccc(C(=O)NCCS)cc1	46.8%	24.1%	45.4%	17.5%	31.2%	22.4%	26.5%	28.1%	17.2%	28.4%	11.5%	31.8%
CN1CCN(c2cc(CNC(=O)CCS)ccn2)CC1	–	8.6%	25.6%	46.3%	27.5%	46.6%	15%	–	12.1%	25.4%	23.7%	44.2%
Cc1nc2n(c(=O)c1CCNC(=O)CCS)CCCC2	–	11.2%	27.4%	41.4%	25.8%	39.1%	10.4%	–	19.3%	30.4%	29.6%	48.4%
CC(C)c1oc(-c2ccccc2)nc1C(=O)NCCS	27.7%	10.3%	13.1%	7.9%	17.3%	7.3%	31.7%	25.3%	8%	13.7%	6.9%	20.1%
O=C(CCS)Nc1cccc(OCCO)c1	–	17.1%	40.2%	40.1%	26.6%	32.3%	38.1%	–	44.5%	34.8%	36.4%	54.4%
O=C(Cc1cnc[nH]1)NCCS	23.5%	10.9%	20.2%	18.5%	28%	21.1%	16%	27.1%	19.9%	21%	20.4%	26%
Cc1ccccc1C(C(=O)NCCS)C1CCCC1 (centres undefined)	47.2%	11.8%	15.3%	10.5%	34.4%	15.3%	32.4%	28.1%	11%	13%	11.8%	36.4%
CC1(C)Oc2ccc(NC(=O)CCS)cc2O1	–	28%	27.8%	24.4%	20.1%	21.6%	41.5%	–	18.1%	21.1%	24.1%	49.8%
O=C(NCCS)c1cc2ccc(Br)cn2c1	15.4%	0%	8.7%	8.7%	16.1%	15.1%	5.8%	20%	12.7%	11.5%	10%	17.4%
O=C(CCS)NC1CC(=O)N(Cc2ccccc2)C1 (centres undefined)	–	11.7%	32.6%	39%	32.3%	40.9%	27.9%	–	14.4%	35.3%	33.5%	53.8%
O=C(CCS)NC1CCC(CO)(CO)CC1	–	0%	25.1%	29.7%	20.8%	29.1%	8.2%	–	11%	25.9%	30.6%	38.6%
O=C(NCCS)c1ccccc1-c1ncc[nH]1	42.5%	19.8%	32.3%	28.6%	35.9%	29.2%	33.2%	43.7%	30.1%	30.2%	32.5%	37.2%
